Measured values: PubChem BioAssay AID686978 (National Center for Advancing Translational Sciences (NCATS), 2013)
Among all 420,000 compounds or so, about 64,000 (15%) were called active. This list was built around the results that the source calls inconclusive (neither active nor inactive); the mix of calls is not that of the screen. Calls come from the whole dose curve; as a rule, active = well fitted inhibition curve with a large enough effect; inconclusive = small, poorly fitted or top-dose-only effect; inactive = flat fitted curve, though single readings scatter. No potency is given beside an inconclusive call; the fits are too rough.

assay: qHTS for Inhibitors of human tyrosyl-DNA phosphodiesterase 1 (TDP1): qHTS in cells in absence of CPT; details: DT40 Tdp1-/- hTDP1 cells, no CPT, ATP luminescence, 48 h; activity change, negative = growth inhibition: at 46.2 µM (top of the series) unless noted; note: nearly all actives have a fitted effect of over 55% in size
Procedure, shortened: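 Chicken DT40 Tdp1-/- cells stably complemented with human TDP1 were seeded at 400 cells/well with DMSO in place of 20 nM camptothecin. After compound pinning, cells grew at least 48 hr at 37 °C; viability read by CellTiter-Glo luminescence.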
% is set by controls: 0 for no effect and ±100 for the full control effect; potency is the fitted concentration of half-maximal effect; tags give direction and shape of the fitted curve.

Compound	Potency	activity change, negative = growth inhibition
CSc1nc(COC(=O)NC(C)C)c(COC(=O)NC(C)C)n1Cc1ccccc1	active: 13 µM	
FC(F)(F)c1ccc(-c2cccc3c2C2CC3CCN2)cc1 (centres undefined)	inconclusive [inhibitor, single point]	
O=C(NCC1CCCO1)C(c1cccs1)N(Cc1cccs1)C(=O)c1ccc(-c2ccccc2)[nH]1 (centres undefined)	inconclusive [inhibitor, single point]	
CCCCCC(=O)N[C@@H](c1ccccc1)[C@@H](O)C(=O)O[C@H]1C[C@@]2(O)[C@@H](OC(=O)c3ccccc3)C3[C@](C)(C(=O)[C@H](OC(C)=O)C(=C1C)C2(C)C)[C@@H](O)C[C@H]1OC[C@@]31OC(C)=O (some centres undefined)	active: 0.103 µM	
CCc1c(C(=O)NCCc2ccc(OC)c(OC)c2)[nH]c(C)c1C(C)=O	inconclusive [inhibitor, single point]	
N#Cc1ccccc1OCC(=O)OCCCOC(=O)COc1ccccc1C#N	inactive	
COc1ccc(CCN(Cc2cc3cc(C)c(C)cc3nc2Cl)C(=O)C2CC2)cc1	active: 20.6 µM	
COc1ccc(CN(C)C(C)C(=O)N(C)CC(=O)Nc2ccc(C)cc2)cc1F (centres undefined)	inconclusive [inhibitor, single point]	
Cc1ccccc1CNCCCSc1nnnn1-c1ccccc1	inactive	
CCNC(=O)C1(C)CCN(Cc2cccc(Oc3ccccc3)c2)C1 (centres undefined)	active: 16.4 µM	
CCc1cccc(C)c1NC(=O)COCc1cc(-c2ccc3c(c2)OCO3)on1	inconclusive [inhibitor, single point]	
COc1ccc(OC)c(C(=O)CSc2nnc(-c3cccs3)o2)c1	inactive	
COc1ccccc1/C=C/[C@@H]1C[C@H]2CN(Cc3cccc(Cl)c3)C(=O)[C@]23CCCN13	active: 20.6 µM	
CCOC(=O)C1=C(CC)Nc2ccccc2N=C1NC(=O)c1ccc(OC)c(S(=O)(=O)N2CCCCC2C)c1 (centres undefined)	inconclusive [inhibitor, partial curve]	
COc1ccc(/C=C/c2nnc(NC(=O)C(C)(C)C)s2)cc1	inconclusive [inhibitor, single point]	
O=C1Nc2cc(C(=O)NCCCN3CCCC3)ccc2S/C1=C/c1cccc(Cl)c1	inconclusive [inhibitor, partial curve]	
C=CCc1ccc(OCCOc2ccc(/C=N/n3cnnc3)cc2OCC)c(OC)c1	inconclusive [inhibitor, partial curve, poor fit]	
COCCCNC(=O)c1ccc(N2CCCC2)c(NS(=O)(=O)c2ccc(C)cc2)c1	inconclusive [inhibitor, partial curve]	
O=C(OCc1csc(Nc2ccccc2)n1)c1ccc(Cl)cc1	inactive	
COc1cc(C)c(CN2CCc3nnc(C(C)NC(=O)c4cccnc4)n3CC2)cc1C (centres undefined)	inactive	
O=S(=O)(Nc1cccc(CCc2ccccn2)c1)c1ccc(Cl)cc1	inconclusive [inhibitor, partial curve]	
COC(=O)c1sc(N)c(C(=O)OC)c1CSc1nnc(-c2ccccc2Cl)n1C	inconclusive [inhibitor, partial curve]	
Cc1cc2ncc(-c3cccs3)nc2cc1C	inconclusive [inhibitor, partial curve]	
O=C(CNCC1CCCCC1)Nc1cccc(S(=O)(=O)N2CCOCC2)c1	inconclusive [inhibitor, partial curve, poor fit]	
Fc1ccc(C2c3cccn3CCN2C(=S)Nc2cccc(F)c2)cc1 (centres undefined)	inconclusive [inhibitor, partial curve]	

Compound	Potency	activity change, negative = growth inhibition
CC1CCCCN1C(=O)CSc1nc2ccccc2nc1Cc1ccc(Cl)cc1 (centres undefined)	inconclusive [inhibitor, single point]	
O=C(Nc1nnc(C2CC2)s1)c1cc(S(=O)(=O)N2CCCCC2)ccc1N1CCOCC1	inactive	
CC(C)c1ccc(NCCC(=O)c2ccc(Br)cc2)cc1	inactive	
c1ccc(Cc2c(C3CCCCC3)nc3c4ccccc4ccn23)cc1	active: 11.6 µM	
COC(=O)/C(C#N)=C/c1c(N2CCN(c3ccccc3)CC2)nc2c(C)cccn2c1=O		inconclusive: -30.2% [inhibitor]
CC(=O)c1sc(NC(=O)c2cc(=O)c3ccccc3o2)nc1C	inconclusive [inhibitor, single point]	
CC(=O)NCCNC(=O)C1Cc2c(-c3ccc(Cl)cc3)ccnc2O1 (centres undefined)	inactive	
Cc1cc(C)c(Cn2c(C)c(CNCc3ccccc3C)c(C(=O)O)c2C)c(C)c1	inconclusive [inhibitor, single point]	
c1cncc(-c2cc(NCc3cccs3)ncn2)c1		inconclusive: -15% [inhibitor]
COc1ccc(S(=O)(=O)N2CCN=C2SCc2cccc(C)c2)cc1	inconclusive [inhibitor, single point]	
CCN(CC)S(=O)(=O)c1ccc(NCC2COc3ccccc3O2)c([N+](=O)[O-])c1 (centres undefined)	active: 23.1 µM	
COC(=O)c1ccc(C)c(NS(=O)(=O)c2ccc(C)c([N+](=O)[O-])c2)c1	inconclusive [inhibitor, single point]	
Cc1ccc(NCc2nc3ccccc3n2CCOc2ccccc2C)cc1	inconclusive [inhibitor, single point]	
O=C1CN(C(=O)COC(=O)c2ccc(Cl)cc2)c2ccccc2N1	inactive	
COCC1CCN(C(=O)C2CCN(c3nc(-c4ccccc4)nc4c3CCC4)CC2)C1 (centres undefined)	inconclusive [inhibitor, single point]	
COc1cc(OC)cc(-c2nc3nc(C)c(CCC(=O)Nc4ccc(C)cc4)c(C)n3n2)c1	inactive	
CCC1(CC)Cc2ccccc2C(C2=C(O)CC(C)(C)CC2=O)=N1	inactive	
COc1ccc(C2=NN(C(=S)Nc3ccccc3)C(c3ccccc3)C2)cc1 (centres undefined)	active: 18.4 µM	
CC1CCN(C(=O)CCNC(=O)c2ccccc2Cl)CC1	inactive	
O=C(CSc1nnc(CNC(=O)c2c(F)cccc2Cl)o1)Nc1ccc2c(c1)OCO2	inactive	
CC(=O)N1CCCc2cc(S(=O)(=O)NCCC3=CCCCC3)ccc21	active: 11.2 µM	
CCC(C)(C)C1CCC2(CC1)NC(=O)N(CC(=O)NCCc1ccc(OC)c(OC)c1)C2=O (centres undefined)	active: 11.6 µM	
COc1cc(CNc2ccc3[nH]c(=O)[nH]c3c2)ccc1OCc1c(F)cccc1Cl		inconclusive: -32.1% [inhibitor]
COc1cccc(Nc2nc(C(C)N)cs2)n1 (centres undefined)	inconclusive [inhibitor, single point]	
CN1CCc2c(sc3c2c(NCc2ccco2)nc2nnnn23)C1	active: 18.4 µM	

Compound	Potency	activity change, negative = growth inhibition
CCN1CCN(C(=O)c2ccccc2N(Cc2ccccc2)S(=O)(=O)c2ccc(C)cc2)CC1	active: 16.4 µM	
O=C(CC1N=C2c3ccccc3N=C(SCc3ccc(Cl)cc3)N2C1=O)NC1CCCCC1 (centres undefined)	inconclusive [inhibitor, partial curve]	
O=C(c1ccco1)N1CCCSC1=Nc1ccccc1		inconclusive: -31.7% [inhibitor]
CCC1=NN2C(=N)/C(=C\c3ccc(OCCOc4ccccc4OC)cc3)C(=O)N=C2S1	inactive	
Oc1ccccc1C1C=C(c2ccc3c(c2)OCO3)NC(c2cccc(Cl)c2)N1 (centres undefined)	active: 12.6 µM	
Cc1[nH]c(-c2ccco2)nc1C(=O)O	inactive	
CCCCn1nc(C(=O)N2CCc3ccccc32)c2ccccc2c1=O	active: 16.4 µM	
COc1ccc(-n2nc3c(c2NC(=O)c2c(F)cccc2Cl)CS(=O)C3)cc1 (centres undefined)	inactive	
CC(C)CCNC(=O)NC(=O)COC(=O)CNC(=O)C1CCCCC1	inactive	
O=C(Nc1oc2ccccc2c(=O)c1-c1ccc(Cl)cc1)c1ccco1	inactive	
COc1cc(CN2CCNC(=O)C2CC(=O)NCCC2=CCCCC2)cc(OC)c1 (centres undefined)	inactive	
CC1CN(C2CCCCC2)C(=O)NC1=O (centres undefined)	inactive	
Cc1ccccc1CSc1nnc(-c2ccco2)n1Cc1ccco1	inconclusive [inhibitor, single point]	
Cc1noc(C)c1C(=O)Nc1ccccc1C(=O)NCCc1ccccc1	inconclusive [inhibitor, single point]	
COC(=O)c1cc(NC(=O)c2cnc(SC)nc2-c2ccccc2)cc(C(=O)OC)c1	inconclusive [inhibitor, single point]	
O=C(NCc1cccc(Br)c1)c1ccc(-n2cnc3cccnc32)cc1	inconclusive [inhibitor, single point]	
CCOc1[nH]n(-c2ccccc2)c(=O)c1C=Nc1ccc(Cl)cc1	active: 14.6 µM	
Cc1ccc(-c2cnc(NCc3ccc(C(C)C)cc3)n2C)cc1	inconclusive [inhibitor, single point]	
Cc1ccccc1NC(=O)c1ccc2nc(N3CCOCC3)sc2c1	active: 14.6 µM	
CC(=O)c1cccc(S(=O)(=O)N2CCCC(c3nc4c(nnn4Cc4ccc(C)cc4)c(=O)[nH]3)C2)c1 (centres undefined)	inactive	
COc1ccc(-c2sc(Nc3ccccc3)n[n+]2-c2ccc(F)cc2)c(C)c1C	active: 10.3 µM	
Cc1ccc2c(c1)N(C(=O)CCC(=O)O)CCO2	inconclusive [inhibitor, single point]	
COc1ccc(-n2nc(C(=O)NCC(=O)NCc3ccc(F)cc3)c3ccccc3c2=O)c(OC)c1		inconclusive: -33.5% [inhibitor]
Cc1nc2c(C(=O)N3CCN(C)CC3)cnn2c(C)c1Cc1ccc(Cl)cc1	inactive	
